This is one part of the list. Many values rest on one well or one pass, so single values are uncertain.
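Also: cells treated in 1,536-well plates, then fixed and DAPI-stained, with nuclei counted from automated high-throughput microscope images.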

For the test, the system named is WM451Lu. Kind of test: cell count relative to DMSO control; melanoma cells; higher = more viable cells. Conditions: library dose: standard library concentration; 72 h.
`Cn1cnc2c(F)c(Nc3ccc(Br)cc3Cl)c(C(=O)NOCCO)cc21` [selumetinib] + COc1cc2c(Oc3ccc4[nH]c(C)cc4c3F)ncnc2cc1OCCCN1CCCC1 [cediranib] (first compound 0.075 µM, partner dose 2 µM): the cell count came to 70.9%.

In the case of `COc1cc([C@@H]2c3cc4c(cc3[C@@H](O[C@@H]3O[C@@H]5CO[C@@H](C)O[C@H]5[C@H](O)[C@H]3O)[C@H]3COC(=O)[C@H]23)OCO4)cc(OC)c1O` [etoposide] + CN(C)S(=O)(=O)c1ccc2c(c1)/C(=C/c1cc3c([nH]1)CCCC3)C(=O)N2 [SU6656] (first compound 0.1 µM, partner dose 2 µM), the cell count is 133%.

Molecule `COc1cc([C@@H]2c3cc4c(cc3[C@@H](O[C@@H]3O[C@@H]5CO[C@@H](C)O[C@H]5[C@H](O)[C@H]3O)[C@H]3COC(=O)[C@H]23)OCO4)cc(OC)c1O` [etoposide] + CCCS(=O)(=O)Nc1ccc(F)c(C(=O)c2c[nH]c3ncc(Cl)cc23)c1F [PLX4720] (first compound 0.1 µM, partner dose 0.4 µM) showed a cell count of 77.1%.

As to `Cn1cnc2c(F)c(Nc3ccc(Br)cc3Cl)c(C(=O)NOCCO)cc21` [selumetinib] + CN(NC(=O)CC(=O)NN(C)C(=S)c1ccccc1)C(=S)c1ccccc1 [STA4783] (first compound 0.075 µM, partner dose 0.03 µM), the cell count stood at 64%.

`CCN(CC)CCNC(=O)c1c(C)[nH]c(/C=C2\C(=O)Nc3ccc(F)cc32)c1C` [sunitinib] + O=C(CCCCCCC(=O)Nc1ccccc1)NO [vorinostat] (first compound 2 µM, partner dose 0.4 µM) gave a cell count of 66.8%.

In the case of `COc1cc([C@@H]2c3cc4c(cc3[C@@H](O[C@@H]3O[C@@H]5CO[C@@H](C)O[C@H]5[C@H](O)[C@H]3O)[C@H]3COC(=O)[C@H]23)OCO4)cc(OC)c1O` [etoposide] + C[C@@H]1CCN(C(=O)CC#N)C[C@@H]1N(C)c1ncnc2[nH]ccc12 [CP690550] (first compound 0.1 µM, partner dose 5 µM), the cell count was 117%.

On to `CCN(CC)CCNC(=O)c1c(C)[nH]c(/C=C2\C(=O)Nc3ccc(F)cc32)c1C` [sunitinib] + COc1cc(Nc2ncc(F)c(Nc3ccc4c(n3)NC(=O)C(C)(C)O4)n2)cc(OC)c1OC [Tamatinib] (first compound 2 µM, partner dose 2 µM), for which the cell count is 72.7%.

As for `COc1cc([C@@H]2c3cc4c(cc3[C@@H](O[C@@H]3O[C@@H]5CO[C@@H](C)O[C@H]5[C@H](O)[C@H]3O)[C@H]3COC(=O)[C@H]23)OCO4)cc(OC)c1O` [etoposide] + OCCn1cc(-c2cnc3nnn(Cc4ccc5ncccc5c4)c3n2)cn1 [PF04217903] (first compound 0.1 µM, partner dose 5 µM), the cell count was found to be 109%.

The molecule `C[C@]1(O)C[C@@H](c2nc(-c3ccc4ccc(-c5ccccc5)nc4c3)c3c(N)nccn32)C1` + CN(C)S(=O)(=O)c1ccc2c(c1)/C(=C/c1cc3c([nH]1)CCCC3)C(=O)N2 [SU6656] (first compound 2 µM, partner dose 2 µM) returned a cell count of 79.6%.

`C[C@]1(O)C[C@@H](c2nc(-c3ccc4ccc(-c5ccccc5)nc4c3)c3c(N)nccn32)C1` + COc1cc2c(Oc3ccc4[nH]c(C)cc4c3F)ncnc2cc1OCCCN1CCCC1 [cediranib] (first compound 2 µM, partner dose 2 µM) had a cell count of 124%.

`CCN(CC)CCNC(=O)c1c(C)[nH]c(/C=C2\C(=O)Nc3ccc(F)cc32)c1C` [sunitinib] + CO[C@@H]1[C@H](N(C)C(=O)c2ccccc2)C[C@H]2O[C@]1(C)n1c3ccccc3c3c4c(c5c6ccccc6n2c5c31)C(=O)NC4 [Midostaurin] (first compound 2 µM, partner dose 0.4 µM) showed a cell count of 76.6%.

`COc1cc([C@@H]2c3cc4c(cc3[C@@H](O[C@@H]3O[C@@H]5CO[C@@H](C)O[C@H]5[C@H](O)[C@H]3O)[C@H]3COC(=O)[C@H]23)OCO4)cc(OC)c1O` [etoposide] + CC(C)(C)c1cnc(CSc2cnc(NC(=O)C3CCNCC3)s2)o1 [SNS-032] (first compound 0.1 µM, partner dose 0.05 µM) gave a cell count of 97.5%.

In turn, `C[C@]1(O)C[C@@H](c2nc(-c3ccc4ccc(-c5ccccc5)nc4c3)c3c(N)nccn32)C1` + C=CCn1c(=O)c2cnc(Nc3ccc(N4CCN(C)CC4)cc3)nc2n1-c1cccc(C(C)(C)O)n1 [MK1775] (first compound 2 µM, partner dose 0.1 µM) registered a cell count of 109%.

`COc1cc([C@@H]2c3cc4c(cc3[C@@H](O[C@@H]3O[C@@H]5CO[C@@H](C)O[C@H]5[C@H](O)[C@H]3O)[C@H]3COC(=O)[C@H]23)OCO4)cc(OC)c1O` [etoposide] + O=C(CCCCCCC(=O)Nc1ccccc1)NO [vorinostat] (first compound 0.1 µM, partner dose 0.4 µM): the cell count was determined as 89%.

As to `COc1cc([C@@H]2c3cc4c(cc3[C@@H](O[C@@H]3O[C@@H]5CO[C@@H](C)O[C@H]5[C@H](O)[C@H]3O)[C@H]3COC(=O)[C@H]23)OCO4)cc(OC)c1O` [etoposide] + O=C(O)c1ccc(-c2c[nH]c3ncc(-c4ccccc4)cc23)cc1C1CCCC1 [GSK650394] (first compound 0.1 µM, partner dose 0.8 µM), the cell count is 111%.

In the case of `Cn1cnc2c(F)c(Nc3ccc(Br)cc3Cl)c(C(=O)NOCCO)cc21` [selumetinib] + Cc1ccc(NC(=O)c2cccc(N(C)C)c2)cc1NC(=O)c1ccc(O)cc1 [ZM336372] (first compound 0.075 µM, partner dose 10 µM), the cell count stood at 72.6%.

Molecule `C[C@]1(O)C[C@@H](c2nc(-c3ccc4ccc(-c5ccccc5)nc4c3)c3c(N)nccn32)C1` + OCCn1cc(-c2cnc3nnn(Cc4ccc5ncccc5c4)c3n2)cn1 [PF04217903] (first compound 2 µM, partner dose 5 µM) came in with a cell count of 102%.

Consider `CCN(CC)CCNC(=O)c1c(C)[nH]c(/C=C2\C(=O)Nc3ccc(F)cc32)c1C` [sunitinib] + CN(C)S(=O)(=O)c1ccc2c(c1)/C(=C/c1cc3c([nH]1)CCCC3)C(=O)N2 [SU6656] (first compound 2 µM, partner dose 2 µM), for which the cell count is 45.9%.

With `CCN(CC)CCNC(=O)c1c(C)[nH]c(/C=C2\C(=O)Nc3ccc(F)cc32)c1C` [sunitinib] + CC(C)(C)c1cnc(CSc2cnc(NC(=O)C3CCNCC3)s2)o1 [SNS-032] (first compound 2 µM, partner dose 0.05 µM), the cell count amounted to 40%.

`Cn1cnc2c(F)c(Nc3ccc(Br)cc3Cl)c(C(=O)NOCCO)cc21` [selumetinib] + O=C(Nc1cccc(Cl)c1)Nc1ncc(CCNc2ncnc3ccsc23)s1 [SNS314] (first compound 0.075 µM, partner dose 0.004 µM) registered a cell count of 57.3%.

As for `COc1cc([C@@H]2c3cc4c(cc3[C@@H](O[C@@H]3O[C@@H]5CO[C@@H](C)O[C@H]5[C@H](O)[C@H]3O)[C@H]3COC(=O)[C@H]23)OCO4)cc(OC)c1O` [etoposide] + CC1(C)NC(=O)N(c2ccc([N+](=O)[O-])c(C(F)(F)F)c2)C1=O [nilutamide] (first compound 0.1 µM, partner dose 5 µM), the cell count stood at 79.3%.

The values are drawn from the supplement of paper PMC4604168 (melanoma cell lines).
